This note sets out measurements from PubChem BioAssay AID1434 (Sanford-Burnham Center for Chemical Genomics, 2008).

This is one part of the list. Further columns of the screen follow, without active or inactive calls. Compounds called inactive in the main read-out are mostly missing here.

The assay concerns the target Runt-related transcription factor 1 (Homo sapiens) + Core-binding factor subunit beta (Homo sapiens) (UniProt Q01196+Q13951). Kind of assay: inhibitors of RUNX1 Runt–CBFb-SMMHC binding, primary screen, biochemical, FRET, Cerulean-Runt, Venus-CBFb-SMMHC, uHTS (AID 1434).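 Further: 0% = DMSO wells and 100% = wells with excess untagged CBFb-SMMHC; inhibitors lower the FRET ratio by blocking Runt binding to CBFb-SMMHC.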 Conditions: Cerulean-Runt/Venus-CBFb-SMMHC FRET ratio 530/480, 1 h; retest duplicate average; at 20 µM; stronger effect = higher value.
UniProt Q01196, sequence (Q01196 whole entry, looked up): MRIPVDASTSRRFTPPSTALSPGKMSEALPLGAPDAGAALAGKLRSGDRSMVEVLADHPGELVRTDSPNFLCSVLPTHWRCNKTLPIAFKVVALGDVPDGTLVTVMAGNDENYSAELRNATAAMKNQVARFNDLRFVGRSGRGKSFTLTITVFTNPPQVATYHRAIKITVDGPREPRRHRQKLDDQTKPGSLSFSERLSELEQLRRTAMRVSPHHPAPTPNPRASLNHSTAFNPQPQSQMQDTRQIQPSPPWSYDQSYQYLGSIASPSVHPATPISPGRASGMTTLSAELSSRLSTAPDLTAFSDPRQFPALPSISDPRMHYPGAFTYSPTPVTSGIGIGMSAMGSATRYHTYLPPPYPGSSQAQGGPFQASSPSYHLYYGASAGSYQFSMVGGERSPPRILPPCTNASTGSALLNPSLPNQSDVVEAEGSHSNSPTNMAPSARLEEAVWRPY
UniProt Q01196, sequence (Q13951 whole entry, looked up): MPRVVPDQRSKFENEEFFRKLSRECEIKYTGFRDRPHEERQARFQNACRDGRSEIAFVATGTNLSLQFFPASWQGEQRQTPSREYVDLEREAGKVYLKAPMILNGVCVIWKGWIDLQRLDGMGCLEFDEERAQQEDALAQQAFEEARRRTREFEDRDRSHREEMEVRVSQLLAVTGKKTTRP
As a reminder, the inhibition is the drop in the measured response relative to a control, in per cent. As to `Cc1cc(=O)oc2c(CN(CC(C)C)CC(C)C)c(O)ccc12`, the inhibition came out at 92.5%.

Regarding `CC(=O)c1c(N2CCN(Cc3ccccc3)CC2)nc(=S)n(Cc2ccccc2)c1C`, the inhibition was 118%.

Take `CN1CCc2c(sc3c2C(=O)NC(c2ccccc2)N3)C1` (configuration not stated): the inhibition amounted to 71.5%.

For `CCOC(=O)C1=C(O)/C(=C/c2cn(CC(=O)N3CCCC3)c3ccccc23)SC1=Nc1ccccc1`, the inhibition came to 70.9%.

On to `O=C(NCc1ccccn1)c1cc2c(ccc3ccccc32)oc1=O`, for which the inhibition turned out to be 161%.

`Oc1c(C=Nc2cccnc2)sc2ccccc12`: the inhibition was 66.5%.

`Cc1cc(C)cc(N=Cc2c(O)c3ccccc3oc2=O)c1`: the inhibition amounted to 70.6%.

For the molecule `CN1/C(=C\C(=O)c2cccnc2)Sc2ccccc21`, the inhibition worked out at 59.1%.

`COCCCn1c(=NC(=O)c2ccncc2)c(C#N)cc2c(=O)n3cccc(C)c3nc21`: the inhibition is 72.9%.

As for `COc1c2ccoc2c(OC[C@@H](O)C(C)(C)OC)c2oc(=O)ccc12`, the inhibition turned out to be 75.1%.

As to `CCN(CC)CCCC(C)Nc1c2ccc(Cl)cc2nc2ccc(OC)cc12` (configuration not stated), the inhibition stood at 70.6%.

Turning to `CCOC(=O)C1=C(C)N=C2SC=C(C)N2C1c1ccc(OC)cc1` (configuration not stated), the inhibition came to 68.1%.

With `O=c1c2ccccc2[nH]c2ccc(F)cc12`, the inhibition was 70.6%.

Turning to `Cc1cc(-c2nc3cccnc3s2)ccc1NS(=O)(=O)c1ccc2c(c1)OCCO2`, the inhibition is 171%.

As to `N#CC1=C(N)Oc2cc(O)ccc2C1c1ccccc1` (configuration not stated), the inhibition was determined as 85.2%.

With `CCN(CC)c1ccc2cc(C#N)c(=O)oc2c1`, the inhibition stood at 112%.

Take `CCN(CC)c1ccc2cc(C(=O)NNC(=O)c3ccc(S(=O)(=O)N4CCCCC4)cc3)c(=O)oc2c1`: the inhibition came to 108%.

Take `Cc1csc2c(=O)sc(NC(=O)c3cccs3)nc12`: the inhibition was 104%.

`CCOc1ccc(/C=C(\C(=O)O)c2ccc(S(=O)(=O)N3CCOCC3)s2)cc1OC`: the inhibition worked out at 58.6%.

With `CSc1nc(=S)c2[nH]c(=S)[nH]c2[nH]1`, the inhibition worked out at 52.2%.

With `C/C(=N/NC(=O)c1ccncc1)c1cc2ccc(O)cc2oc1=O`, the inhibition was found to be 71.5%.

Regarding `COc1ccc(OC)c(N=c2oc3cc(O)ccc3cc2C(N)=O)c1`, the inhibition came to 129%.

As to `CN1/C(=C\C=C(/C#N)C(=O)Nc2ccccc2F)C(C)(C)c2ccccc21`, the inhibition was determined as 63.2%.

As to `CCCOc1ccccc1C1C(C(=O)OC)=CN(C(C)C)C=C1C(=O)OC`, the inhibition was 72.9%.

`CN1CCc2nc(NC(=O)COc3ccc(C#N)cc3)sc2C1`: the inhibition was found to be 92.5%.

In the case of `COc1cc(/C=C(\C#N)c2nc3ccccc3[nH]2)cc(Br)c1OCc1ccc(F)cc1`, the inhibition was determined as 117%.

Regarding `CCOCCCNC(=S)NCCNc1nc2ccc(C)cc2cc1C#N`, the inhibition came to 115%.

On to `CCOC(=O)C1=C(C)NC2=C(C(=O)C(C(=O)OCC)C(c3ccccc3OC)C2)C1c1ccccn1` (configuration not stated), for which the inhibition was 71.8%.

Turning to `CN1C(=O)N(C)c2ccc(C=O)c3cccc1c23`, the inhibition was found to be 70.6%.

On to `Fc1ccccc1-c1ccc(/C=N/Nc2nc3ccccc3[nH]2)o1`, for which the inhibition came to 63.1%.

Turning to `Nc1c(C(=O)OCC2CCCO2)c2nc3ccccc3nc2n1C1CCCCC1` (configuration not stated), the inhibition worked out at 73.3%.

On to `N#CC1(C#N)COC23CCCCC2C1(C#N)C(=N)O3` (configuration not stated), for which the inhibition was found to be 126%.

As to `c1ccc(N2N=C(c3cccs3)CC2c2ccco2)cc1` (configuration not stated), the inhibition turned out to be 60.3%.

As to `CCCn1nc(NC(=O)c2cccs2)c2cc3ccc(C)cc3nc21`, the inhibition worked out at 50.6%.

Consider `COc1ccc(C2C(C#N)=C(N)N(Nc3ccccc3)C3=C2C(=O)CC(C)(C)C3)cc1C` (configuration not stated), for which the inhibition is 120%.

For `CCN(CC)Cc1c(O)c(Cl)cc2c(C)cc(=O)oc12`, the inhibition stood at 156%.

Regarding `Nc1c(C(=O)NCc2ccc3c(c2)OCO3)c2nc3ccccc3nc2n1CCCN1CCOCC1`, the inhibition was 73.6%.

Turning to `CCCn1nc(NC(=O)c2ccccn2)c2cc3cc(C)ccc3nc21`, the inhibition came to 80.9%.

For the molecule `COCCn1c(C)cc(C(=O)CSc2nc(C)cc(C)c2C#N)c1C`, the inhibition stood at 96.4%.

Take `Cc1ccc2cc(C#N)c(N3CCCC3)nc2c1C`: the inhibition was 67.3%.

In the case of `COc1ccc(C2CC(=O)N3CN(c4ccccc4F)CSC3=C2C#N)cc1OC` (configuration not stated), the inhibition stood at 112%.

For `CCCNC(=O)Cn1sc2nc(C)cc(C)c2c1=O`, the inhibition came to 52.2%.

On to `Nc1n[nH]c2cc(=O)n(-c3cccc(C(F)(F)F)c3)nc12`, for which the inhibition is 100%.

For the molecule `Cc1ccc2cc(C#N)c(NCCNC(=O)C3CCC3)nc2c1C`, the inhibition came out at 105%.

In the case of `COCCOC(=O)c1cc(C(=O)c2cc(F)ccc2O)coc1=N`, the inhibition is 108%.

With `O=c1oc2c(CN3CCOCC3)c(O)c(Cl)cc2c2c1CCC2`, the inhibition is 174%.

Regarding `N#C/C(=C\c1c(N2CCC(C(N)=O)CC2)nc2ccccn2c1=O)C(=O)NCc1ccco1`, the inhibition was found to be 166%.

Consider `CC(C)Cn1c(-c2cccs2)nc2nc3ccccc3nc21`, for which the inhibition amounted to 129%.

In the case of `CCNc1nc(C)c(CN(C(C)=O)c2ccccc2)nc1C#N`, the inhibition is 84.5%.

Consider `Cc1cc(NCc2ccco2)nc2cc(O)ccc12`, for which the inhibition was 84.9%.

Consider `O=C(O)c1cc2ccc3ccccc3c2oc1=O`, for which the inhibition was found to be 74.3%.

`Cc1cc(O)c(Oc2cc(C)cc(O)c2O)c(O)c1`: the inhibition was determined as 60.2%.

On to `Cc1ccc2c(n1)sc1c(-c3ccccc3)c(C#N)c(N)nc12`, for which the inhibition was determined as 127%.

For the molecule `COC(=O)C1=CN(C(C)C)C=C(C(=O)OC)C1c1cc2c(cc1Br)OCO2`, the inhibition is 110%.

For `CCn1c(/C=C/c2c(C)[nH]c3ccccc23)nc2ccccc2c1=O`, the inhibition came out at 71.5%.

With `Nc1c(Cl)ncnc1N/N=C/c1ccccn1`, the inhibition stood at 71.5%.

In the case of `Cc1cc2c(c(=O)n1C)C(Cc1ccccc1)C(C#N)=C(N)O2` (configuration not stated), the inhibition was determined as 177%.

Turning to `CNC(=O)c1cc2c(=O)n3cccc(C)c3nc2n(C(C)C)c1=N`, the inhibition came out at 72.9%.

Take `C=CCn1c(=O)c(C#N)cc2c(=O)n3ccccc3nc21`: the inhibition turned out to be 72.9%.

In the case of `Cc1cccn2c(=O)c3cc(C#N)c(=NC(=O)c4cccs4)n(CC(C)C)c3nc12`, the inhibition was found to be 70.6%.

Turning to `CN1c2ccc(Cl)cc2C(=O)NC1C1CC=CCC1` (configuration not stated), the inhibition was 101%.

For `O=C(O)COc1ccc2c(c1)O/C(=C\c1cccs1)C2=O`, the inhibition was 53.9%.

`Cc1cccc2cc(C#N)c(NCCNS(=O)(=O)c3ccccc3)nc12`: the inhibition was 90.1%.

`COc1ccc2nc3cc(Cl)ccc3c(Nc3cc(C(C)C)c(O)cc3C)c2c1`: the inhibition came to 76.9%.

Take `O=C1Nc2ccccc2C12Nc1ccccc1S2` (configuration not stated): the inhibition turned out to be 54.4%.

Consider `CCOC(=O)c1c(/N=C/c2ccc(O)cc2O)sc2c1CCC2`, for which the inhibition was determined as 54.9%.

Take `CSc1ccc(C2NC(=O)c3c(sc4c3CCN(C)C4)N2)cc1` (configuration not stated): the inhibition worked out at 152%.

For the molecule `CCNc1nc2nc3ccc(C)cn3c(=O)c2cc1C(=O)NCC1CCCO1` (configuration not stated), the inhibition was 70.6%.

Consider `CCCCc1cc(=O)oc2cc(O)ccc12`, for which the inhibition is 104%.

Turning to `Oc1ccc(-c2cnns2)c(O)c1`, the inhibition came to 57.5%.

As for `Cc1ccc2nc3c(cc2c1)c(NC(=O)c1ccco1)nn3CC(C)C`, the inhibition was 80%.

In the case of `N#Cc1c(NCCN)nc(NCc2ccccc2)c2c1CCN(Cc1ccccc1)C2`, the inhibition is 72.9%.
